First the molecules themselves.
B1: CPEB3 Ribozyme (parent)
chain: UAACAGGGGGCCACAGCAGAAGCGUUCACGUCGCAGCCCCUGUCAGAUUCUGGUGAAUCUGCGAAUUCUGCUGUAUAUCUC

Read counts are not given, so values of variants with three or more changes are uncertain.

Variants of B1 are the subject of the data set. In words: self-cleavage, relative activity (ratio to wild type); higher = more cleavage; in vitro, sequencing. In a few lines:
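Relative activity compares each variant's cleaved/total read fraction with that of the unmutated ribozyme. To get these fractions, barcoded CPEB3 ribozyme libraries from rounds of error-prone PCR were transcribed with T7 RNA polymerase for 5 hours at 37°C and then given 15 min of DNase I treatment before EDTA was added. The RNAs were reverse transcribed with template switching and sequenced on Illumina, and DNA sequencing linked barcodes to variants. A minimum of 5 reads applied, and three batches were averaged.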
Turning to U25A U26C U78C, the self-cleavage is 0.14.

In the case of U25A U49A U60C, the self-cleavage was found to be 0.14.

As to U25C C27A U31C A45G U54C U67A C79A, the self-cleavage was 0.04.

U25C A45G U58A C62U: the self-cleavage amounted to 0.12.

In the case of U25C A45G U54C, the self-cleavage was determined as 0.21.

On to U25A U26C A35U, for which the self-cleavage amounted to 0.17.

For the variant U25C A28G U31C U43C, the self-cleavage worked out at 0.24.

On to U25C A47U U49A U78A, for which the self-cleavage was determined as 0.07.

For U25C C32U U48C U54C A57G C68G, the self-cleavage stood at 0.05.

As for U25A A45U U51C, the self-cleavage was 0.06.

On to U25A U51C A56G U76A, for which the self-cleavage was 0.14.

As for U25C A35G U43A A64G, the self-cleavage was 0.34.

As for U25C A47G U48C U49C U54C U76A, the self-cleavage worked out at 0.

Regarding U25C A35U U43C, the self-cleavage was 0.14.

As for U25C A28U U41A A45U, the self-cleavage stood at 0.23.

As to U25C C38U A56G A57G A77G U78C, the self-cleavage was 0.06.

As to U25C A35U C39U A77U, the self-cleavage was found to be 0.12.

With U25A A45G U60C U80C, the self-cleavage worked out at 0.32.

For U25A U26A A45U C79A, the self-cleavage came to 0.06.

As to U25A U72C U80C, the self-cleavage turned out to be 0.05.

Turning to U25A C40A U51A, the self-cleavage amounted to 0.09.

With U25C A35U U43C U54C C62U, the self-cleavage worked out at 0.21.

U25A U48C U54C U78C C81G: the self-cleavage turned out to be 0.15.

On to U25A U26A U49C U67C, for which the self-cleavage was determined as 0.06.

In the case of U25A C27G C32G A45U A77G, the self-cleavage amounted to 0.17.

As for U25C C32U A35C, the self-cleavage is 0.22.

As for U25A C40A A45G U72C, the self-cleavage is 0.09.

Turning to U25A U54C U60C, the self-cleavage worked out at 0.18.

Consider U25A A35G G42A U51A, for which the self-cleavage came to 0.21.

For the variant U25A G36U U49G, the self-cleavage was 0.09.

Take U25A A47G G73A U74A A75U: the self-cleavage came to 0.13.

For U25C A28U U51A A65G, the self-cleavage was found to be 0.25.

Regarding U25A G33A U41A A56U U80A, the self-cleavage turned out to be 0.07.

Consider U25A A35U C40A U48A, for which the self-cleavage worked out at 0.12.

Take U25A U26C U41C U76C A77U: the self-cleavage was found to be 0.21.

G24U U58G A64U: the self-cleavage was 0.13.

On to U25A A65G U78A, for which the self-cleavage came out at 0.

As to U25C A28U U66C C71U, the self-cleavage was determined as 0.08.

For the variant U25C A28G C38A U76C, the self-cleavage stood at 0.09.

In the case of U25A G30A A56U U60C U67C U78A, the self-cleavage was 0.1.

Turning to U25A A45G U58G C59G, the self-cleavage is 0.16.

Take U25C A57G U60C: the self-cleavage was 0.13.

Regarding U25C A57G U60A, the self-cleavage is 0.09.

U25C A28G A56G A57G: the self-cleavage was 0.17.

U25A A47G A64U U72C: the self-cleavage stood at 0.23.

As to U25A C34U C39A A65G U80C, the self-cleavage was found to be 0.13.

In the case of U25C C32U G33U A35U U41C C44U A47G, the self-cleavage amounted to 0.04.

For the variant U25C A45U A47U, the self-cleavage amounted to 0.07.

On to U25C C32U U49C, for which the self-cleavage stood at 0.17.

On to U25C A28U A35G U58A U66C A75G, for which the self-cleavage worked out at 0.05.

Turning to U25A C68G U69C U76C U80A, the self-cleavage was found to be 0.11.

Regarding U25C A35G A57G G63A U69A, the self-cleavage amounted to 0.11.

For the variant U25C A35G A47U U49A C62U, the self-cleavage is 0.12.

For U25C A35U A45G A65G, the self-cleavage worked out at 0.18.

On to G24U U41C U69C, for which the self-cleavage was 0.13.

Regarding U25C A28G A35U, the self-cleavage stood at 0.21.

Take U25C A35G U69A A75G: the self-cleavage amounted to 0.11.

For U25C A56U U72A, the self-cleavage came out at 0.25.

U25A A35U A45G A64G U78C: the self-cleavage came to 0.13.

For U25A C50G A56U A64G U66C, the self-cleavage turned out to be 0.08.

U25C A45G A64G U72C: the self-cleavage came out at 0.14.

Turning to U25C A28C A56G U60C A64U G73A, the self-cleavage is 0.05.

U25A A47G C59U U72C U76C C79U: the self-cleavage was 0.08.

U25C C32U G36U: the self-cleavage came to 0.09.

With U25C A28U U31A G73U, the self-cleavage was 0.09.

As for U25C A35G A56U U60C, the self-cleavage was determined as 0.18.

As to U25C A64C U80C, the self-cleavage stood at 0.24.

As for U25A G30A U31C, the self-cleavage worked out at 0.16.

Turning to U25A A28C U80C, the self-cleavage was 0.65.

As to U25A U54C C71U, the self-cleavage was determined as 0.12.

On to U25A A35G U60A, for which the self-cleavage came to 0.07.

With U25A A64G U74C, the self-cleavage was 0.2.

Turning to U25A U48C A64G U69C, the self-cleavage amounted to 0.08.

Take G24U U41C U74C: the self-cleavage was found to be 0.19.

With U25C A65G U72C, the self-cleavage came to 0.3.

Consider U25C A45U G53U, for which the self-cleavage worked out at 0.25.

Take U25A U54G A64G U74A A75U: the self-cleavage was 0.13.

Consider U25C A28G U31C A64G C71G, for which the self-cleavage amounted to 0.1.

For U25A U51C A65G, the self-cleavage is 0.26.

Regarding U25A A57G U69C, the self-cleavage stood at 0.12.

Regarding U25C A28G A45U G46C U67A U69A A75G, the self-cleavage was 0.11.

With U25C A28U U31A C37U U54C, the self-cleavage came to 0.09.

Turning to U25A A35G A45U, the self-cleavage was 0.21.

Values taken from the RNAGym collection of RNA variant scans (doi:10.1093/nar/gkz1192).
